# Results published in PubChem BioAssay (NCATS).
# This list was built around the results that the source calls inconclusive (neither active nor inactive); the mix of calls is not that of the screen. For some assays here: Potencies of inconclusive entries are doubtful fits and often do not repeat. Calls of active or inactive are those of the source. Calls follow the shape of the dose curve; as a rule, active = well fitted curve in the direction sought with a large enough effect; inconclusive = small, poorly fitted or top-dose-only effect, or another doubt; inactive = no such curve, though single readings can be large; an effect the other way counts as inactive or inconclusive.
# How the values were obtained:
# [1] = qHTS to identify inhibitors of the type 1 interferon - major histocompatibility complex class I in skeletal muscle: primary screen against the NCATS Pharmaceutical Collection (AID 1347407);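 also: luminescence of HiBiT knocked into endogenous HLA-B as interferon-induced MHC class I level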
# Summary of the method: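 Luminescence from HiBiT-tagged endogenous HLA-B*08:01 served as the read-out of IFN-beta-induced MHC class I in CRISPR-engineered C25cl48 myoblasts. Cells received 4 ng/ml IFN-beta plus compound (high final 46 uM, […]) for 24 h.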
# [2] = biological target: Protein phosphatase 1D (Homo sapiens) (UniProt O15297); assay: RapidFire Mass Spectrometry qHTS Assay for Modulators of WT P53-Induced Phosphatase 1 (WIP1) (AID 1347424);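 also: amount of dephosphorylated VEPPL-S-QETFS peptide product formed by WIP1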
# UniProt O15297, sequence (O15297 whole entry, looked up): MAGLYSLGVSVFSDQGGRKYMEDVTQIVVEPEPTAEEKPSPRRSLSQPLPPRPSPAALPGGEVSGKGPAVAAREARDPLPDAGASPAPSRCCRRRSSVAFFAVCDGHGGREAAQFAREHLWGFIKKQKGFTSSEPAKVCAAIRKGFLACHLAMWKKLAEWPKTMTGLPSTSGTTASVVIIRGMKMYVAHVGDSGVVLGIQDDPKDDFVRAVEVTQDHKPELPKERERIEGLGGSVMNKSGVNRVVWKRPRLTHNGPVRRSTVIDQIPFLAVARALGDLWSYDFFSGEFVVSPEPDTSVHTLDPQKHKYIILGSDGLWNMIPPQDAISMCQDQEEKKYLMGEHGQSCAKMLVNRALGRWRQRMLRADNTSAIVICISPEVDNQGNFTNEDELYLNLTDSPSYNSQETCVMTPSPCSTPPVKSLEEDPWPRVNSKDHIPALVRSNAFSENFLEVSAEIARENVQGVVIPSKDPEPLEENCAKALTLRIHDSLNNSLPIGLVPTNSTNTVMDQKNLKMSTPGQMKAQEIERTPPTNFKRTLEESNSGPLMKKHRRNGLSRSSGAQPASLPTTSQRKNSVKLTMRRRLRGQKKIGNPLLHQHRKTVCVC
# Summary of the method: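 10 nM WIP1 + cpd, 1 h RT; + 2 uM VEPPL-pS-QETFS, 5 min RT; stop 0.5% formic acid; labelled product standard 1 uM; RapidFire MS. Buffer 50 mM Tris pH 7.5, 30 mM MgCl2, 1 mM TCEP.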
# [3] = biological target: Protein phosphatase 1D (Homo sapiens) (UniProt O15297); assay: Rhodamine-PBP qHTS Assay for Modulators of WT P53-Induced Phosphatase 1 (WIP1) (AID 1347425)
# Summary of the method: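 The read-out is the change in Rhodamine-PBP fluorescence (f1 - f0, ex 525/em 598 nm) as Pi is released, read each minute for 11 min. Final reaction: 5 nM WIP1, 10 uM phosphopeptide VEPPL-pS-QETFS, 10 uM Rh-PBP, 50 mM Tris-HCl pH 7.5, 30 mM MgCl2. Compound was preincubated with enzyme for 1 hour at room temperature.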
# [4] = qHTS to identify inhibitors of the type 1 interferon - major histocompatibility complex class I in skeletal muscle: primary screen against the NCATS Mechanism Interrogation Plate v5.0 (MIPE) Libary (AID 1347411); conditions: iHSKM cells + IFN-b, HiBiT-tagged MHC-I luminescence, 24 h; series mostly up to 45.8 µM; also: nearly all actives have a fitted effect of over 65% in size
# Summary of the method: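 Luminescence from HiBiT-tagged endogenous HLA-B*08:01 served as the MHC class I read-out. CRISPR-engineered C25cl48 human myoblasts received 4.0 ng/ml IFN-beta plus compound for 24 hrs, with an 11-point, 1:3 series topping at 46 uM final.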
# [5] = Primary qHTS for inhibitors of La Crosse Virus (LACV) - induced cell death in SH-SY5Y cells (AID 1508616)
# Summary of the method: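 Protection against LACV-induced cell death is scored in SH-SY5Y cells exposed to compounds and virus (0.01 MOI) for 6 days. Data normalized to virus-infected DMSO wells and virus-free DMSO wells.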
# [6] = biological target: Calcium and integrin-binding protein 1 (Homo sapiens) (UniProt Q99828); assay: Confirmatory qHTS for Identification of Calcium Integrin Binding Protein 1 (CIB1) Competitor (AID 1508617); also: nearly all actives have a fitted effect of over 65% in size
# UniProt Q99828, sequence (Q99828 whole entry, looked up): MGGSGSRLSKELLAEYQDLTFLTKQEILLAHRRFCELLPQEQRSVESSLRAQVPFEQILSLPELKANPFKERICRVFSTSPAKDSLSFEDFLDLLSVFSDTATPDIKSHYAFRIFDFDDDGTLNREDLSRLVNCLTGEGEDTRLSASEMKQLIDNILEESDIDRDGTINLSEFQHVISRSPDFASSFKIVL
# Summary of the method: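 Compounds at up to 114 uM final met 1 uM GST-tagged CIB1 for 15 min at room temperature (HEPES pH 7.4, 5 mM CaCl2). FITC-labelled alphaIIb peptide, 100 nM, added; polarization read after 15 min more.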
# Potency is read from the fitted curve at half-maximal effect; tags tell the direction and shape of the fitted curve.
compound,measurement,setting,value
O=C(Nc1ncc([N+](=O)[O-])s1)c1cccs1,Potency,[1],"inconclusive: 23.6 µM [inhibitor, partial curve]"
same,Potency,[2],"inconclusive: 7.94 µM [inhibitor, partial curve, poor fit]"
same,Potency,[3],"inconclusive: 12.6 µM [inhibitor, partial curve, poor fit]"
Oc1ccc(C(O)CNCCCCCCNCC(O)c2ccc(O)c(O)c2)cc1O (stereo unspecified),Potency,[1],inactive
CN(C)CC/C=C1\c2ccccc2Sc2ccc(Cl)cc21,Potency,[1],"inconclusive: 37.4 µM [inhibitor, single point]"
CCCCCN=C(N)N/N=C/c1c[nH]c2ccc(OC)cc12,Potency,[1],"inconclusive: 21 µM [inhibitor, single point]"
same,Potency,[4],active: 6.58 µM
COc1cccc2c1C(=O)c1c(O)c3c(c(O)c1C2=O)C[C@@](O)(C(=O)CO)C[C@@H]3O[C@H]1C[C@H](N)[C@H](O)[C@H](C)O1,Potency,[1],active: 23.6 µM
same,Potency,[5],"inconclusive: 3.16 µM [inhibitor, single point]"
NC(=O)c1ncn([C@@H]2O[C@H](CO)[C@@H](O)[C@H]2O)c1O,Potency,[1],inactive
same,Potency,[4],inactive
same,Potency,[5],inactive
CC(=O)OCC(=O)NCCCOc1cccc(CN2CCCCC2)c1,Potency,[1],inactive
COc1cc(C=C2CCC/C(=C\c3ccc(O)c(OC)c3)C2=O)ccc1O,Potency,[1],active: 14.9 µM
same,Potency,[3],"inconclusive: 39.8 µM [inhibitor, single point]"
CCCCC1(COC(=O)CCC(=O)O)C(=O)N(c2ccccc2)N(c2ccccc2)C1=O,Potency,[1],"inconclusive: 21 µM [inhibitor, partial curve]"
CCCCCCCCCCCCCCCC[n+]1ccccc1,Potency,[1],"inconclusive: 29.7 µM [inhibitor, single point]"
same,Potency,[5],"inconclusive: 3.16 µM [inhibitor, single point]"
Nc1ccc(C(=O)Nc2ccccc2N)cc1,Potency,[1],"inconclusive: 14.9 µM [inhibitor, partial curve]"
same,Potency,[5],"inconclusive: 1 µM [inhibitor, partial curve, poor fit]"
CNCCC(Oc1ccccc1OC)c1ccccc1 (stereo unspecified),Potency,[1],inactive
same,Potency,[5],"inconclusive: 6.31 µM [inhibitor, single point]"
CN1CCC(Nc2ncc3ncnc(Nc4ccc(F)c(Cl)c4)c3n2)CC1,Potency,[1],active: 18.7 µM
same,Potency,[5],"inconclusive: 2.51 µM [inhibitor, single point]"
CC(=O)OCC(=O)[C@@]12OC(C)(C)O[C@@H]1C[C@H]1[C@@H]3C[C@H](F)C4=CC(=O)C=C[C@]4(C)[C@@]3(F)[C@@H](O)C[C@@]12C,Potency,[1],"inconclusive: 0.0264 µM [inhibitor, full curve, poor fit]"
CCCCOc1ccc(C(=O)CCN2CCCCC2)cc1,Potency,[1],inactive
CCCCOC(=O)c1ccc(N)cc1,Potency,[1],"inconclusive: 0.0015 µM [inhibitor, full curve]"
CN(C)c1ccc(C(=C2C=CC(=[N+](C)C)C=C2)c2ccc(N(C)C)cc2)cc1,Potency,[1],active: 9.38 µM
same,Potency,[5],"inconclusive: 1 µM [inhibitor, partial curve, poor fit]"
CCCC(=O)O[C@]1(C(=O)CO)CC[C@H]2[C@@H]3CCC4=CC(=O)CC[C@]4(C)[C@H]3[C@@H](O)C[C@@]21C,Potency,[1],"inconclusive: 0.021 µM [inhibitor, full curve, poor fit]"
same,Potency,[5],inactive
CCCCCCCCCCCCCCCC[N+](C)(C)CC,Potency,[1],"inconclusive: 26.4 µM [inhibitor, single point]"
O=C(Nc1ccc(Cl)cc1)Nc1ccc(Cl)c(Cl)c1,Potency,[1],"inconclusive: 29.7 µM [inhibitor, single point]"
CCCCCCCCCCCCCCCC[N+](C)(C)Cc1ccccc1,Potency,[1],active: 23.6 µM
same,Potency,[2],"inconclusive: 44.7 µM [inhibitor, single point]"
C[C@@]12C(=O)OC(=O)[C@]1(C)C1CCC2O1,Potency,[1],active: 13.3 µM
same,Potency,[5],"inconclusive: 2.24 µM [inhibitor, single point]"
COc1cccc2c1C(=O)c1c(O)c3c(c(O)c1C2=O)C[C@@](O)(C(C)=O)C[C@@H]3O[C@H]1C[C@H](N)[C@H](O)[C@H](C)O1,Potency,[5],"inconclusive: 0.251 µM [inhibitor, full curve, poor fit]"
NC(=NCCCCCCN=C(N)/N=C(\N)Nc1ccc(Cl)cc1)/N=C(\N)Nc1ccc(Cl)cc1,Potency,[5],"inconclusive: 3.16 µM [inhibitor, single point]"
same,Potency,[6],"inconclusive: 35.5 µM [inhibitor, partial curve]"
CCCCCCCCCCCCCCCC[N+](C)(C)CCN(Cc1ccc(OC)cc1)c1ncccn1,Potency,[6],inactive
